# Data as given in the supplement of paper PMC7826260.
# The other results are listed elsewhere or left out. Viral Rep nickase domains cut single-stranded DNA in vitro (1 h at 37 °C, 3 µM enzyme); the outer parts of the 90-letter strands are left off. Uncut reads are compared with the no-enzyme pool on a log2 scale; uncut sequences lie near 0, cut ones below; no hit call is given. Because reads are shares of a total, they shift together; uncut strands gain when others are lost, and binding without cutting may add a little.
# Experiments:
# Experiment in all cases: uncleaved DNA left, log2 of reads against the no-enzyme library (log2 ratio); higher = less cleavage (more negative = more Rep cleavage of the k-mer); sequences stand for … in CTCGTCCG…ACCGGAGA
# [1] = test system: T1, Rep nickase domain of Muscovy duck circovirus
# T1 sequence (residues 1-111 of Rep, tag left off): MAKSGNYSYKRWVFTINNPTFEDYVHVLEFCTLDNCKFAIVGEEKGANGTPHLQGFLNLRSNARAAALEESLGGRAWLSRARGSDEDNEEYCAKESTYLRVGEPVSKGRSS
# Protocol: (§1)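 A pool of 90-nt single-stranded DNAs with seven random bases just before the constant AC of the nick site (name = the seven bases) was cut by 3 µM recombinant His6-SUMO-tagged Rep nickase domain (300 nM DNA, 50 mM HEPES pH 8.0, 50 mM NaCl, 1 mM MnCl2, 1 h, 37 °C, three replicates). Uncut DNA was amplified and sequenced.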
# [2] = test system: T2, Rep nickase domain of banana bunchy top virus
# T2 sequence (residues 1-94 of Rep, tag left off): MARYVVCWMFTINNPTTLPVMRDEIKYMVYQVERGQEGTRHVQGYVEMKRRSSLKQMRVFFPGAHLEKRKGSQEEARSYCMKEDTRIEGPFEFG
# Protocol: as §1
# [3] = test system: T3, Rep nickase domain of cabbage leaf curl virus
# T3 sequence (residues 1-116 of Rep, tag left off): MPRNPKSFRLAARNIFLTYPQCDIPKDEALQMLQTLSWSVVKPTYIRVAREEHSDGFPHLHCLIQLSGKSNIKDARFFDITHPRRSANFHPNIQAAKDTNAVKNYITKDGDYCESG
# Protocol: as §1
# [4] = test system: T4, Rep nickase domain of chickpea chlorotic dwarf virus
# T4 sequence (residues 1-124 of Rep, tag left off): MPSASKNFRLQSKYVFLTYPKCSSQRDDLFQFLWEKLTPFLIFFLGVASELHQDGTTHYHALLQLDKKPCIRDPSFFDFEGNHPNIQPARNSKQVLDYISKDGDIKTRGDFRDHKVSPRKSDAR
# Protocol: as §1
# [5] = test system: T5, Rep nickase domain of faba bean necrotic yellows virus
# T5 sequence (residues 1-98 of Rep, tag left off): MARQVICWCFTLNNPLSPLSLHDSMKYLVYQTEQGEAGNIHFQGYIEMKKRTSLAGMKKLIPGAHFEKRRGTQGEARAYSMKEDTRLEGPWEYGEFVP
# Protocol: as §1
# [6] = test system: T6, Rep nickase domain of maize striate mosaic virus
# T6 sequence (residues 1-117 of Rep, tag left off): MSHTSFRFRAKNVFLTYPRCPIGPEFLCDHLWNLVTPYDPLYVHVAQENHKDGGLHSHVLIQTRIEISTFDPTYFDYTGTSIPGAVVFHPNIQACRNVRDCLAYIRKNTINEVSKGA
# Protocol: as §1
# [7] = test system: T7, Rep nickase domain of porcine circovirus 2
# T7 sequence (residues 2-116 of Rep, tag left off): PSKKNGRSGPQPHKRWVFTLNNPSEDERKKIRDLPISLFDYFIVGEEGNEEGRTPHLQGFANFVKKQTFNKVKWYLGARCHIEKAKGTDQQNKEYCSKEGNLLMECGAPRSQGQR
# Protocol: as §1
# [8] = test system: T8, Rep nickase domain of tomato golden mosaic virus
# T8 sequence (residues 1-124 of Rep, tag left off): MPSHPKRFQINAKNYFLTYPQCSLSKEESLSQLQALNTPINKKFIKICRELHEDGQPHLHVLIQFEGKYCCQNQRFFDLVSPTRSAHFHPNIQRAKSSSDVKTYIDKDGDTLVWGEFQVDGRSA
# Protocol: as §1
# [9] = test system: T9, Rep nickase domain of tomato yellow leaf curl virus
# T9 sequence (residues 1-136 of Rep, tag left off): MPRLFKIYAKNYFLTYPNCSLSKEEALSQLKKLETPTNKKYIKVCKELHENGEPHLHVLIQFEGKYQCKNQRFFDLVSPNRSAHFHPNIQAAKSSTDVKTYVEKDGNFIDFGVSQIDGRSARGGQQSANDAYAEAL
# Protocol: as §1
# [10] = test system: T10, Rep nickase domain of wheat dwarf virus
# T10 sequence (residues 1-137 of Rep, tag left off): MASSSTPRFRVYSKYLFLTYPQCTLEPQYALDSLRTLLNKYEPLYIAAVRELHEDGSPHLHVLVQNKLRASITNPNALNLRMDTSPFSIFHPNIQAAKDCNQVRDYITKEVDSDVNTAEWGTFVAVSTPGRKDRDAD
# Protocol: as §1
sequence,measurement,setting,value
TACGGAT,uncleaved DNA left (log2),[1],0.169
same,uncleaved DNA left (log2),[2],0.0714
same,uncleaved DNA left (log2),[3],0.287
same,uncleaved DNA left (log2),[4],1.52
same,uncleaved DNA left (log2),[5],-0.0105
same,uncleaved DNA left (log2),[6],1.88
same,uncleaved DNA left (log2),[7],0.238
same,uncleaved DNA left (log2),[8],0.0717
same,uncleaved DNA left (log2),[9],0.0363
same,uncleaved DNA left (log2),[10],0.11
TATACTC,uncleaved DNA left (log2),[1],0.0163
same,uncleaved DNA left (log2),[2],-0.0663
same,uncleaved DNA left (log2),[3],-0.0101
same,uncleaved DNA left (log2),[4],-1.3
same,uncleaved DNA left (log2),[5],0.0196
same,uncleaved DNA left (log2),[6],-0.385
same,uncleaved DNA left (log2),[7],-0.0366
same,uncleaved DNA left (log2),[8],-0.0798
same,uncleaved DNA left (log2),[9],-0.0277
same,uncleaved DNA left (log2),[10],0.014
CAACACG,uncleaved DNA left (log2),[1],-0.222
same,uncleaved DNA left (log2),[2],-0.185
same,uncleaved DNA left (log2),[3],-1.09
same,uncleaved DNA left (log2),[4],-0.483
same,uncleaved DNA left (log2),[5],0.0259
same,uncleaved DNA left (log2),[6],-1.1
same,uncleaved DNA left (log2),[7],0.0514
same,uncleaved DNA left (log2),[8],-0.0462
same,uncleaved DNA left (log2),[9],-0.106
same,uncleaved DNA left (log2),[10],-0.157
ATACCAG,uncleaved DNA left (log2),[1],-0.065
same,uncleaved DNA left (log2),[2],0.0365
same,uncleaved DNA left (log2),[3],-0.348
same,uncleaved DNA left (log2),[4],-0.352
same,uncleaved DNA left (log2),[5],0.105
same,uncleaved DNA left (log2),[6],-0.97
same,uncleaved DNA left (log2),[7],-0.0196
same,uncleaved DNA left (log2),[8],0.0507
same,uncleaved DNA left (log2),[9],0.0158
same,uncleaved DNA left (log2),[10],-0.0109
TTTAATC,uncleaved DNA left (log2),[1],0.0306
same,uncleaved DNA left (log2),[2],0.0316
same,uncleaved DNA left (log2),[3],0.218
same,uncleaved DNA left (log2),[4],0.119
same,uncleaved DNA left (log2),[5],-0.053
same,uncleaved DNA left (log2),[6],-0.334
same,uncleaved DNA left (log2),[7],0.021
same,uncleaved DNA left (log2),[8],0.0519
same,uncleaved DNA left (log2),[9],0.0297
same,uncleaved DNA left (log2),[10],0.171
TTCGGTA,uncleaved DNA left (log2),[1],0.123
same,uncleaved DNA left (log2),[2],0.102
same,uncleaved DNA left (log2),[3],0.144
same,uncleaved DNA left (log2),[4],0.0952
same,uncleaved DNA left (log2),[5],0.0573
same,uncleaved DNA left (log2),[6],0.491
same,uncleaved DNA left (log2),[7],-0.0665
same,uncleaved DNA left (log2),[8],0.0859
same,uncleaved DNA left (log2),[9],0.0701
same,uncleaved DNA left (log2),[10],0.0321
CTGCTAG,uncleaved DNA left (log2),[1],0.0426
same,uncleaved DNA left (log2),[2],0.19
same,uncleaved DNA left (log2),[3],-0.562
same,uncleaved DNA left (log2),[4],-0.349
same,uncleaved DNA left (log2),[5],0.14
same,uncleaved DNA left (log2),[6],-1.06
same,uncleaved DNA left (log2),[7],0.188
same,uncleaved DNA left (log2),[8],0.0366
same,uncleaved DNA left (log2),[9],0.198
same,uncleaved DNA left (log2),[10],-0.0311
TATAGGG,uncleaved DNA left (log2),[1],0.166
same,uncleaved DNA left (log2),[2],0.0104
same,uncleaved DNA left (log2),[3],0.183
same,uncleaved DNA left (log2),[4],0.321
same,uncleaved DNA left (log2),[5],0.0824
same,uncleaved DNA left (log2),[6],-0.271
same,uncleaved DNA left (log2),[7],0.259
same,uncleaved DNA left (log2),[8],0.159
same,uncleaved DNA left (log2),[9],0.125
same,uncleaved DNA left (log2),[10],0.15
CCTACAA,uncleaved DNA left (log2),[1],-0.0718
same,uncleaved DNA left (log2),[2],0.0514
same,uncleaved DNA left (log2),[3],-0.285
same,uncleaved DNA left (log2),[4],-1.91
same,uncleaved DNA left (log2),[5],0.143
same,uncleaved DNA left (log2),[6],-0.768
same,uncleaved DNA left (log2),[7],0.178
same,uncleaved DNA left (log2),[8],-0.101
same,uncleaved DNA left (log2),[9],0.117
same,uncleaved DNA left (log2),[10],0.149
AGGCTCC,uncleaved DNA left (log2),[1],-0.0881
same,uncleaved DNA left (log2),[2],-0.0957
same,uncleaved DNA left (log2),[3],0.197
same,uncleaved DNA left (log2),[4],0.528
same,uncleaved DNA left (log2),[5],-0.0232
same,uncleaved DNA left (log2),[6],1.24
same,uncleaved DNA left (log2),[7],0.0567
same,uncleaved DNA left (log2),[8],-0.054
same,uncleaved DNA left (log2),[9],-0.0117
same,uncleaved DNA left (log2),[10],0.00055
CACTCTT,uncleaved DNA left (log2),[1],-2.98
same,uncleaved DNA left (log2),[2],-3.17
same,uncleaved DNA left (log2),[3],-1.26
same,uncleaved DNA left (log2),[4],-2.8
same,uncleaved DNA left (log2),[5],-0.491
same,uncleaved DNA left (log2),[6],-0.884
same,uncleaved DNA left (log2),[7],-3.96
same,uncleaved DNA left (log2),[8],-0.364
same,uncleaved DNA left (log2),[9],-0.0131
same,uncleaved DNA left (log2),[10],-0.183
GTTCCAT,uncleaved DNA left (log2),[1],0.0876
same,uncleaved DNA left (log2),[2],0.178
same,uncleaved DNA left (log2),[3],0.386
same,uncleaved DNA left (log2),[4],1.03
same,uncleaved DNA left (log2),[5],0.012
same,uncleaved DNA left (log2),[6],1.84
same,uncleaved DNA left (log2),[7],0.163
same,uncleaved DNA left (log2),[8],0.134
same,uncleaved DNA left (log2),[9],0.185
same,uncleaved DNA left (log2),[10],0.205
GTTTTGG,uncleaved DNA left (log2),[1],0.185
same,uncleaved DNA left (log2),[2],0.0107
same,uncleaved DNA left (log2),[3],0.231
same,uncleaved DNA left (log2),[4],0.516
same,uncleaved DNA left (log2),[5],0.0974
same,uncleaved DNA left (log2),[6],0.402
same,uncleaved DNA left (log2),[7],0.109
same,uncleaved DNA left (log2),[8],0.0655
same,uncleaved DNA left (log2),[9],0.0594
same,uncleaved DNA left (log2),[10],0.0491
AATAGTC,uncleaved DNA left (log2),[1],0.0191
same,uncleaved DNA left (log2),[2],-0.105
same,uncleaved DNA left (log2),[3],-0.0606
same,uncleaved DNA left (log2),[4],-0.326
same,uncleaved DNA left (log2),[5],0.0367
same,uncleaved DNA left (log2),[6],-0.949
same,uncleaved DNA left (log2),[7],0.0529
same,uncleaved DNA left (log2),[8],-0.016
same,uncleaved DNA left (log2),[9],0.00654
same,uncleaved DNA left (log2),[10],-0.00327
CCTATGC,uncleaved DNA left (log2),[1],0.101
same,uncleaved DNA left (log2),[2],-0.0779
same,uncleaved DNA left (log2),[3],-0.577
same,uncleaved DNA left (log2),[4],-0.687
same,uncleaved DNA left (log2),[5],-0.114
same,uncleaved DNA left (log2),[6],-1.27
same,uncleaved DNA left (log2),[7],0.0811
same,uncleaved DNA left (log2),[8],-0.0738
same,uncleaved DNA left (log2),[9],0.0536
same,uncleaved DNA left (log2),[10],0.0188
